Where “and” joins values, the source holds several entries; their conditions need not be identical. Equal values may be shown once.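 Test compounds were applied to cells in 96-well plates for 48 hours at 5 doses. The concentration for 50% growth inhibition is given as GI50. TGI marks complete inhibition of growth.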 Numbered stars: 1 amine (or outer) side, 2 acyl side, 3 side chain; on linkers, the order of the positions; unused ones are H or OH. Peptide text beside a SMILES is read from it. CO = O=C([*:1])[*:2]
System: NCI-H322M lung
Experiment: DTP human tumour cell line panel, 48 h

CC(C)C(NC(=O)C(CCCN=C(N)N)NC(=O)NC(Cc1ccccc1)C(=O)O)C(=O)NC(C=O)CCCN=C(N)N (stereo not drawn) ({Phe-CO}-Arg-Val-Arg-aldehyde; configuration not given here)
GI50: > 5 µM | TGI: > 5 µM

Cc1ccc(S(=O)(=O)Oc2coc(CO)cc2=O)cc1
TGI: 30.7 µM

C=CCN1C(=O)N/C(=C\c2ccc(Cl)cc2)C1=O
TGI: > 100 µM

O=C(c1cccs1)c1c(C(F)(F)F)n([O-])c2cc(C(F)(F)F)ccc2[n+]1=O
GI50: 1.98 µM | TGI: 4.02 µM

N#C/C(=C\c1ccc(Cl)cc1)n1nnc2cc(F)c(F)cc21
GI50: 1.87 µM | TGI: 4.59 µM

Cc1nc(Nc2ccccc2)sc1C(=O)NNC(N)=O
TGI: > 100 µM

CC(=O)C1(c2ccccc2)CCCN(C)CC1 (stereo not given)
TGI: > 100 µM

N#Cc1c(C(N)=O)ncn1Cc1ccccc1
TGI: > 100 µM

COC(=O)c1cccc(C)c1C1CN=NC12Cc1c(ccc(C)c1C)C2=O (stereo not given)
TGI: > 100 µM

O=S(=O)(NCCNc1cc(-c2cn(-c3ccccc3)nc2-c2cccc(O)c2)ccn1)c1ccc(F)cc1
GI50: 3.48 µM | TGI: 18.2 µM

Cc1cc(Nc2ncc(Cl)c(Nc3ccccc3S(=O)(=O)C(C)C)n2)c(OC(C)C)cc1C1CCNCC1
GI50: 1.13 µM | TGI: 2.35 µM

CN(C)c1ccc2[nH]c(O)c(C=Nc3ccc(S(N)(=O)=O)cc3)c2c1
GI50: > 25 µM | TGI: > 25 µM

COc1ccc(C(=O)c2ccc(OC)cc2OC)cc1
GI50: 3.59 µM | TGI: > 100 µM

O=C1CC(n2cccc2)c2cc(Br)sc21 (stereo not given)
TGI: > 100 µM

Cc1cc(Nc2nc(N3CCOCC3)nc3ccccc23)n[nH]1
GI50: 26.1 µM | TGI: > 100 µM

O=c1c2cc([N+](=O)[O-])cnc2sn1-c1ccc(Oc2ccccc2)cc1
TGI: > 100 µM

Cc1cc2c(cc1Cl)SC(NNC(=O)c1ccncc1)=NS2(=O)=O
TGI: > 10 µM

CN(C)c1cccc(-c2cc(=O)c3cc4c(cc3[nH]2)OCO4)c1
TGI: > 100 µM

O=C1c2scnc2-c2nccc3c2c1nc1ccccc13
TGI: 2.88 µM

O=C(O)C(Cc1ccccc1)N1C(=O)c2ccccc2C1=O (stereo not given)
TGI: > 100 µM

Cc1nn(-c2ccccc2)c2nc3c(c(C)nn3-c3ccccc3)c(-c3ccccc3Br)c12
TGI: > 100 µM

CC1=C/C(=N\N(C)C)C(C(O)(C(F)(F)F)C(F)(F)F)C(C)(C)C1 (stereo not given)
TGI: > 100 µM

Cc1ccc(-c2nc3nc(-c4ccc(Cl)cc4)nc(N4CCCNCC4)c3o2)cc1
GI50: 1.63 µM | TGI: 2.98 µM

O=C(Nc1ccc(N=Nc2ccccc2)cc1)Sc1ccccc1C(=O)O
TGI: > 100 µM

O=C(/C=C/C12c3ccccc3C(c3ccccc31)C1C(=O)NC(=O)C12)c1ccco1 (stereo not given)
GI50: 2.95 µM | TGI: 12 µM

CCOC(=O)c1ccc(C(O)CC(=O)OC(C)(C)C)[nH]1 (stereo not given)
GI50: 37.1 µM | TGI: > 100 µM

CCC12CC[C@H](C#N)N3CCc4c(n(c5ccccc45)C(=O)C1)C32 (stereo not given in full)
TGI: 44 µM

COC1CCC(OS(C)(=O)=O)CO1 (stereo not given)
TGI: > 100 µM

C[C@]12CC[C@H]3[C@@H](CC=C4C[C@@H](O)CC[C@@]43C)[C@@H]1C/C(=C\c1cccc(OCCCn3ccnc3)c1)[C@@H]2O
GI50: 17.1 µM | TGI: 33.9 µM

Clc1cccc(Cl)c1C1SCc2nc3cc4ccccc4cc3n21 (stereo not given)
TGI: > 100 µM

COc1cc2c(cc1OCCCCCN1CCN(c3cc(=O)oc4c(C)c(OC)ccc34)CC1)N=C[C@@H]1CCCN1C2=O
GI50: 0.116 µM | TGI: 0.516 µM

Cc1nc(Cl)c(C)c(Cl)n1
TGI: > 100 µM

C/C(=N\[N+](C)(C)C)C(c1ccccc1)C1(c2ccccc2)C(c2ccccc2)=C1c1ccccc1 (stereo not given)
TGI: > 100 µM

N#CC(c1ccc(Cl)cc1)c1cccc(Cl)n1 (stereo not given)
TGI: > 100 µM

COc1cc(/C=C/C(=O)CC(=O)/C=C/c2ccc(OC(=O)CCNC34CC5CC(CC(C5)C3)C4)c(OC)c2)ccc1OC(=O)CCNC12CC3CC(CC(C3)C1)C2
GI50: 15 µM | TGI: 30 µM

S=C(NCCCCCCNC(=S)Nc1c2ccccc2nc2ccccc12)Nc1c2ccccc2nc2ccccc12
TGI: > 100 µM

Nc1c(C(=O)Nc2cccc3ccccc23)sc2nc3c(cc12)CCCCC3
GI50: 3.98 µM | TGI: > 50 µM

O=C1CCC(NC(=O)Cc2ccc(O)cc2)C(=O)N1 (stereo not given)
TGI: > 2500 µM

CO[C@H]1C[C@@H]2CC[C@@H](C)[C@@](O)(O2)C(=O)C(=O)N2CCCC[C@H]2C(=O)O[C@H]([C@H](C)C[C@@H]2CC[C@@H](OC(=O)C(C)(CO)CO)[C@H](OC)C2)CC(=O)[C@H](C)/C=C(\C)[C@@H](O)[C@@H](OC)C(=O)[C@H](C)C[C@H](C)/C=C/C=C/C=C/1C
GI50: 5.82 µM

CCCOc1ccc(/C=C/C2=[N+](CCO)CCO2)cc1
TGI: > 100 µM

OC(c1ccc(-c2ccccc2)cc1)(c1ccc(-c2ccccc2)cc1)c1ccc(-c2ccccc2)cc1
TGI: > 100 µM

CCC(C)C(NC(=O)C(CCCCN)NC(=O)C(NC(=O)C(CCC(N)=O)NC(=O)C(CCCNC(=N)N)NC(C)=O)C(C)CC)C(=O)NC(Cc1c[nH]c2ccccc12)C(=O)NC(Cc1ccccc1)C(=O)NC(CCC(N)=O)C(=O)NC(CC(N)=O)C(=O)NC(CCCNC(=N)N)C(=O)NC(CCCNC(=N)N)C(=O)NC(CCSC)C(=O)NC(CCCCN)C(=O)NC(Cc1c[nH]c2ccccc12)C(=O)NC(CCCCN)C(=O)NC(CCCCN)C(N)=O (stereo not given)
TGI: > 50 µM

Cc1ccc(C2=NN(C)COC2C(F)(F)F)cc1 (stereo not given)
TGI: > 100 µM

O=C(O)c1ccccc1C(=O)OCC1CCCN2CCCCC12 (stereo not given)
TGI: > 100 µM

CC[N+](CC)(CC)Cc1cn(S(=O)(=O)c2ccccc2)c2ccccc12
TGI: > 100 µM

CN1CCN(CCCOc2ccc3ncnc(Nc4ccc(Oc5cccc(C(F)(F)F)c5)c(Cl)c4)c3c2)CC1
GI50: 1.37 µM | TGI: 3.04 µM

COC(=O)CC1CN(C(=O)OCc2ccccc2)C(C)(C)O1 (stereo not given)
TGI: > 100 µM

NC1=NN(c2ccccc2)C(=O)C1C(=O)C(=O)Nc1cccc(C(F)(F)F)c1 (stereo not given)
TGI: > 100 µM

O=C(/C=C/c1c(O)c2ccccc2[nH]c1=O)CC(=O)C(=O)Nc1cccc(O)c1
TGI: > 100 µM

CCN(CC)CCN1CCN=c2c3cc(OC)ccc3n3cnc4ccc1c2c43
TGI: 2.73 µM

CCOC(=O)c1c(-c2ccc(Cl)cc2)c(C#N)c(=S)n(C2OC(CO)C(O)C(O)C2O)c1-c1ccccc1 (stereo not given)
TGI: > 100 µM

CC(C)C1=CC(=O)C(C)(C2=NC(C)(C)CO2)c2ccccc21 (stereo not given)
TGI: > 100 µM

CC1=C(C(=O)OC23CC4CC(CC(C4)C2)C3)C(c2ccccc2OC(F)F)C(C(=O)OC23CC4CC(CC(C4)C2)C3)=C(C)N1 (stereo not given)
TGI: > 100 µM

CC1(C)C[C@H]2C3=CC[C@@H]4[C@@]5(C)CC[C@H](O)C(C)(C)[C@@H]5CC[C@@]4(C)[C@]3(C)C[C@@H](O)[C@@]23C[C@@H]1OC3=O
TGI: > 100 µM

O=C(n1[nH]c(=O)n(-c2ccc([N+](=O)[O-])cc2)c1=O)C(Cl)(Cl)Cl
TGI: > 75 µM

CC1=Cc2cc3[n-]c(cc4nc(cc5[n-]c(cc1n2)c(C)c5CCC(=O)O)C(CCC(=O)O)=C4C)cc3C.[Cu+2]
GI50: > 71.3 µM | TGI: > 100 µM

COc1ccc(-c2cc(=O)c3c(O)c(OC)c(O)cc3o2)cc1O
TGI: > 81.8 µM

CN(C)Cc1cc(C(=O)/C=C/c2c(Cl)cccc2Cl)cc(CN(C)C)c1O
TGI: 23.8 µM

CNC(=O)C(C)NC(=O)C(Cc1ccccc1)NC(=O)OC(C)(C)C (stereo not given)
TGI: > 100 µM

C/C=C/CP(=O)(c1ccccc1)c1ccccc1
TGI: > 100 µM

NC(=O)CC1(O)C=CC(=O)C=C1
TGI: > 100 µM

Cc1cc2c(cc1C)[n+](=O)c(C(=O)c1cccs1)c(C(F)(F)F)n2[O-]
TGI: 4.26 µM and 9.45 µM

CC1(C)OC(=O)C=C(O)O1.CC1(C)OC(=O)C=C(O)O1.CCO.Oc1ccc2c(c1)CCC2.[Ti]
GI50: 60.1 µM | TGI: > 100 µM

CCn1cc(C(=O)O)c(=O)c2cc(F)c(N3CCN(Cn4c(O)c(N=NC(=O)c5ccncc5)c5cc(Cl)ccc54)CC3)cc21
TGI: > 100 µM

COc1ccc(C2c3cc4c(cc3OC(O)(CO)C2C(=O)O)OCO4)c(OC)c1OC (stereo not given) (tested in a mixture with another compound)
TGI: > 100 µM

CCOC(=O)c1ccc2[nH]c(Cc3[nH]c4ccc(C(=O)OCC)cc4c3C)c(C)c2c1
GI50: 10.7 µM | TGI: 70.3 µM

O=C1c2ccccc2-c2ccc(O)cc21
TGI: 70.3 µM

CCSc1nc(=S)[nH]c2[nH]ncc12
GI50: > 100 µM | TGI: > 100 µM

COc1nc(C#CCCCC#N)nc(OC)n1
TGI: 41.7 µM

CC(=O)/C(=C/N1C(=O)CC(=O)NC1=S)C(=O)Nc1ccccc1C
TGI: > 100 µM

Cc1c(Cl)c(=O)oc2cc(OCC(=O)c3ccccc3)ccc12
TGI: > 100 µM

CC1=C([Se]CC(OC(=O)[C@@H](CSSC(C)(C)C)NC(=O)C(C)(C)C)C(=O)NCCCCCC(=O)OCc2ccccc2)C(=O)c2ccccc2C1=O (stereo not given in full)
GI50: 0.397 µM | TGI: 2.29 µM

CC(C(O)c1ccccc1)N(C)/N=N/c1nc2c([nH]1)c(=O)n(C)c(=O)n2C (stereo not given)
TGI: > 100 µM

CCOC(=O)CCc1c(C)c2ccc(O)cc2oc1=O
TGI: > 100 µM

CSC1=N/C(=C\c2ccc(Cl)cc2)C(=O)N1CN1CCOCC1
TGI: > 100 µM

CCCN(CCC)C(=S)N/N=C/c1cccc(C)n1
TGI: 10.4 µM

Fc1ccc(Nc2ccc3cc(OCCCN4CCOCC4)ccc3n2)cc1F
GI50: 7.22 µM | TGI: > 100 µM

N=c1oc2cc(O)c(O)cc2cc1C(N)=O
TGI: > 100 µM

CCN(CC)/C(=C\Cl)Nc1ccccn1
TGI: > 100 µM

N#CCc1[nH]nc2nc(SCc3ccccc3)nc(N3CCCCC3)c12
TGI: 36.9 µM

COc1cc(/C=C2\CCC(C)c3c2nc(N)c(C#N)c3-c2cc(OC)c(OC)c(OC)c2)cc(OC)c1OC (stereo not given)
TGI: > 100 µM

NC(=Nc1ccc(Cl)c(Cl)c1)c1ccccc1N
TGI: > 100 µM

O=C1C(Br)=C(c2ccccc2)C(c2ccccc2)=C1c1ccccc1
TGI: 29.5 µM

[N-]=[N+]=Nc1cc(=O)n(-c2ccccc2)c(=O)n1-c1ccccc1
TGI: > 100 µM

C/C(=C\c1csc(C)n1)[C@@H]1C[C@@H]2O[C@]2(C)CCC[C@H](C)[C@H](O)[C@@H](C)C(=O)C(C)(C)[C@@H](O)CC(=O)O1 (tested in a mixture with another compound)
TGI: > 0.588 µM

C=CCOCCCC(=O)C(=[N+]=[N-])C(=O)OC
TGI: > 100 µM

C=C1C(=O)O[C@H]2[C@H]1CC/C(COC(=O)N[C@@H](Cc1c[nH]c3ccccc13)C(=O)OC)=C\CC[C@@]1(C)O[C@@H]21
GI50: 5.39 µM | TGI: 18 µM

O=C(/C=C/c1ccc2c(c1)OCO2)c1ccccc1
GI50: 15.4 µM | TGI: 35 µM

COc1cc2c3c(n(CCCn4ccnc4)c(=O)c2cc1OC)-c1ccccc1C3=O
GI50: 0.132 µM | TGI: 5.02 µM

O=C1OC2(c3ccccc31)c1cc(I)c(O)c(I)c1Oc1c2cc(I)c(O)c1I
TGI: > 100 µM
